From the supplement of paper PMC11417369 come the findings set out here.

± gives the standard deviation of the averaged measurements. Some of the results follow.

The test has as its system PfAP2-I AP2 domain 3 (GST-tagged). Description: gcPBM binding intensity (ln(normalized median fluorescence intensity)); higher = stronger DNA binding. An outline of the steps: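 An Agilent 4 × 180k array carrying primer-extended double-stranded 36-bp intergenic genomic probes and negative controls received GST-tagged P. falciparum DNA-binding domains expressed in E. coli, about 25 μg on average, for 1 h. The binding buffer contained 1× PBS, 1% milk, 0.2 mg/ml BSA, 0.5% salmon testes DNA and 0.03% Triton X-100. Binding intensity is the top Masliner-normalised natural-log median intensity across replicate spots of either probe orientation, read after Alexa488 anti-GST antibody staining and a 488 nm scan.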
Consider “TATAAATAAAGACACACACACACACCGTATAATTAC [CACACA_site7829]”, for which the “gcPBM binding intensity (ln)” value was 8.01 ± 0.4.

“TAATAAAACATATATACACACATTAGATATACATAT [CACACA_site6897]”: the “gcPBM binding intensity (ln)” value was determined as 7.64 ± 0.37.

“TTCCCAACATGATATTGTACATTTAATTATAATTAA [XGTACX_site7029]”: the “gcPBM binding intensity (ln)” value was found to be 8.18 ± 0.43.

Turning to “TATATCTCTTTATTCACACATACGTTTTAAAATAAT [CACACA_site5542]”, the “gcPBM binding intensity (ln)” value worked out at 8.08 ± 0.42.

In the case of “CCAGGAAAAATTTATTGTACATATATTTTTATGCTC [XGTACX_site7154]”, the “gcPBM binding intensity (ln)” value amounted to 7.68 ± 0.53.

Regarding “TATATTAAAAAAAAATGTACACATATATATATATAT [XGTACX_site4524]”, the “gcPBM binding intensity (ln)” value turned out to be 9.44 ± 0.26.

With “ATATTATTAATTTGTTGTACAGTTCTTTATTTATAG [XGTACX_site7932]”, the “gcPBM binding intensity (ln)” value turned out to be 7.92 ± 0.57.

On to “TATATGTTTGAATATACACACAACATATATATATAT [CACACA_site4066]”, for which the “gcPBM binding intensity (ln)” value is 9.3 ± 0.63.

TATTTTTGGTTATGTGTGCACTATGAACAACAAAAT: the “gcPBM binding intensity (ln)” value was 11.4 ± 0.26.

On to “GACACCTGCATGAAAGTGCAAAATAGAAAAGGAACA [GTGCAC_site9593]”, for which the “gcPBM binding intensity (ln)” value was 10.6 ± 0.27.

“TTACCTCTTTGAAATATACACACTAAACATATCAAC [CACACA_site2455]”: the “gcPBM binding intensity (ln)” value was determined as 8.06 ± 0.38.

For the sequence “AAGGAATAATAATAAATGTAAAGAAAAGCATACTGA [CACACA_negctrl_site36]”, the “gcPBM binding intensity (ln)” value amounted to 7.58 ± 0.78.

With “AAATACCTTATATATACACACTATGTTTTTCTTTTT [CACACA_site4792]”, the “gcPBM binding intensity (ln)” value is 7.89 ± 0.75.

Turning to “AACACGCACAGACACACACACAAAAATGATTAAAAA [CACACA_site7195]”, the “gcPBM binding intensity (ln)” value is 8.29 ± 0.15.

In the case of “TTTATGAGGTTACTATGTACGCAAATTATGTAATAA [XGTACX_site325]”, the “gcPBM binding intensity (ln)” value is 8.19 ± 0.13.

Consider “ATTTGTGTTATTCGAAGTACGGATCATTTGAAATAA [XGTACX_site2510]”, for which the “gcPBM binding intensity (ln)” value worked out at 7.78 ± 0.41.

Take “AAAAGAAGAAACAAAACACACACAGTCTTCTTTTCT [CACACA_site9015]”: the “gcPBM binding intensity (ln)” value came to 7.67 ± 0.95.

Take “AGCAATTTGGGGTGTACACACACCTTATTTAAATTA [CACACA_site1157]”: the “gcPBM binding intensity (ln)” value was found to be 8.23 ± 0.22.

Consider “TCAAATTATTAAAATACACACATATTATATATATAT [CACACA_site2530]”, for which the “gcPBM binding intensity (ln)” value amounted to 8.93 ± 0.25.

Consider “TCGAACGTATCATGTGTACACACAAATTGTTTTTTT [CACACA_site8623]”, for which the “gcPBM binding intensity (ln)” value was 8.13 ± 0.36.

Consider “CCTTGCCCCAGGAGTTCACACACATAATAGATTGTC [CACACA_site8138]”, for which the “gcPBM binding intensity (ln)” value amounted to 7.88 ± 0.77.

With GTATAAAAGTAACTAGTGCATTACATATGAATAAAA, the “gcPBM binding intensity (ln)” value was determined as 11.4 ± 0.6.

Take “AGATATTTTTCTTAAGTACACACTAATTAGAAACTA [CACACA_site7897]”: the “gcPBM binding intensity (ln)” value stood at 7.89 ± 0.45.

Consider “TTTTTATTTTAAAAGAATAATTATCTAATATCTATA [CACACA_negctrl_site371]”, for which the “gcPBM binding intensity (ln)” value worked out at 7.31 ± 0.52.

With “ATATTTTAAAATAATACACACAAAATGATTCTTAAT [CACACA_site2930]”, the “gcPBM binding intensity (ln)” value is 7.9 ± 0.72.

Take “AACAATAAATTATTATGTACACATATATTATATATA [XGTACX_site4629]”: the “gcPBM binding intensity (ln)” value was found to be 7.64 ± 0.28.

In the case of “TATATTATATAATTTTAACACACAAGAATATAAACT [CACACA_site8378]”, the “gcPBM binding intensity (ln)” value is 8.05 ± 0.69.

As to “ATAAGTATTACTAGTACACACAAGTTGTTAATCCTT [CACACA_site3324]”, the “gcPBM binding intensity (ln)” value turned out to be 8.04 ± 0.66.

On to “CATAAATACAAATATACACACATATTTATATTTATA [CACACA_site7277]”, for which the “gcPBM binding intensity (ln)” value was 7.7 ± 0.34.

“AATATGTTTTACGTCTCACACATATAGGTTTATATT [CACACA_site4713]”: the “gcPBM binding intensity (ln)” value came out at 7.75 ± 0.73.

On to “ATTATACTTTCCATTCGTACATATATAAATAAATAA [XGTACX_site6245]”, for which the “gcPBM binding intensity (ln)” value amounted to 8.25 ± 0.45.

Turning to “ATATATAGATGTGAATTATTTATATTATCTATTCTT [CACACA_negctrl_site518]”, the “gcPBM binding intensity (ln)” value was 7.3 ± 0.47.

For “AAACTTCAAAAAGAGCACTTGAATTTTTTTTTTTTT [TGCATGCA_negctrl_site133]”, the “gcPBM binding intensity (ln)” value stood at 7.92 ± 0.39.

With “AAAAAGAACACAAAAAGTACAAAAATTATAATGATA [XGTACX_site2676]”, the “gcPBM binding intensity (ln)” value was 7.69 ± 0.61.

Turning to “TCAAAGTAAAACAGGACATGCACAGAACATCCTGCC [TGCATGCA_site2]”, the “gcPBM binding intensity (ln)” value stood at 7.73 ± 0.93.

With “TACACAAAGTTACATACACACTAATATTTACACCAT [CACACA_site6602]”, the “gcPBM binding intensity (ln)” value worked out at 8.07 ± 0.4.

Take “TAAAGAAAAATATAAAGTACAAAAATAAAAAAAATA [XGTACX_site8226]”: the “gcPBM binding intensity (ln)” value worked out at 7.88 ± 0.41.

Turning to “AAAAAAAAAACATACACACACATATAGATTTATATG [CACACA_site6847]”, the “gcPBM binding intensity (ln)” value was found to be 7.56 ± 0.49.

Regarding GTATTTATGTGTTTGGTGCAAGGGAGAATTTTTTTT, the “gcPBM binding intensity (ln)” value is 8.87 ± 0.29.

Consider “ATATAATCTGAGTGCACACAAATAAATAAACATACA [CACACA_site422]”, for which the “gcPBM binding intensity (ln)” value worked out at 10.6 ± 0.16.

Regarding “TTTTTTTTGTATTTTTCACACACACCGAAGTAAACA [CACACA_site8575]”, the “gcPBM binding intensity (ln)” value was 8.24 ± 0.42.

Turning to “TAAAAGGATGCATATACACACATATAGATTTATATA [CACACA_site7336]”, the “gcPBM binding intensity (ln)” value was determined as 7.74 ± 0.45.

On to “TTAAATTCGTCATTTTAAAATAATACAAAAGTTCAA [CACACA_negctrl_site19]”, for which the “gcPBM binding intensity (ln)” value stood at 7.45 ± 0.45.

Turning to “TTTTTCCTTATTAATACACACATTCACCTTTTAAAT [CACACA_site479]”, the “gcPBM binding intensity (ln)” value stood at 8.41 ± 0.62.

For “AGTTGCATACATTGAAGTACAGAACATTTATATATA [XGTACX_site240]”, the “gcPBM binding intensity (ln)” value worked out at 7.86 ± 0.44.

For “CTTATGTGCATACCTACACACTTACCTATATTTATA [CACACA_site7411]”, the “gcPBM binding intensity (ln)” value was 8.62 ± 0.45.

For “TTACGATTTAAAATGGGTACATATATATGAAAAAAA [XGTACX_site545]”, the “gcPBM binding intensity (ln)” value came to 7.96 ± 0.5.

“TCACTAAACCATTAGAGTACTTGACATATAATGAGC [XGTACX_site3272]”: the “gcPBM binding intensity (ln)” value worked out at 7.61 ± 0.52.

Take “TATATATAAAAAACATGTACACAAATTTACATACAT [XGTACX_site4777]”: the “gcPBM binding intensity (ln)” value came to 7.96 ± 0.21.

Turning to “AAGAGTTAAAAAAATACACACATATATATTTTTTTA [CACACA_site1980]”, the “gcPBM binding intensity (ln)” value is 7.62 ± 0.65.

With “TTTTTGTATGCTTCCCGACTACATTATGCCATAAAT [CACACA_negctrl_site136]”, the “gcPBM binding intensity (ln)” value amounted to 8.09 ± 0.69.

For “GATTATATATGAAAATGTACAAATATATATATATAT [XGTACX_site5963]”, the “gcPBM binding intensity (ln)” value is 9.34 ± 0.51.

Regarding “AAAAAAAAAAAAAAAAAAAAAAAAAAATACATATGT [XGTACX_negctrl_site95]”, the “gcPBM binding intensity (ln)” value turned out to be 9.88 ± 0.47.

As to “AAACCAAGGCACAATAATTAAATAAATAAAATCATG [GTGCAC_negctrl_site574]”, the “gcPBM binding intensity (ln)” value was found to be 8.01 ± 0.35.

For “ATATAATTTTTCAAGTGTACTTTTTTTTTTTAACAT [XGTACX_site3050]”, the “gcPBM binding intensity (ln)” value is 8.27 ± 0.028.

In the case of “ATTTATATATATATAGGTACACATATTTATATATAA [XGTACX_site8487]”, the “gcPBM binding intensity (ln)” value amounted to 7.58 ± 0.41.

Consider “TCATTCATATGTTACACACACACACCCACATAAAAA [CACACA_site3245]”, for which the “gcPBM binding intensity (ln)” value came to 8.24 ± 0.48.
